In patent US20250092146A1 (ABILITA BIO, published 2025):

Tests used:
[1] = molecular target: T1, human CCR8 (hCCR8) (human, UniProt P51685 1-355); assay: flow cytometry on HEK293-hCCR8 cells, VHH-Fc
T1 construct: On transfected HEK293/HEK293T cells, or naturally expressed on HuT-78 cells; also called C-C chemokine receptor type 8

[2] = molecular target: T1, human CCR8 (hCCR8); assay: flow cytometry on HEK293-hCCR8 cells, VHH-Fc; normalized to wild type VHH-2-Fc
[3] = molecular target: T1, human CCR8 (hCCR8); assay: flow cytometry on HEK293-hCCR8 cells
[4] = molecular target: T1, human CCR8 (hCCR8); assay: flow cytometry on HEK293-hCCR8 cells; normalized to VHH-2-Fc

T1 sequence (P51685 whole entry): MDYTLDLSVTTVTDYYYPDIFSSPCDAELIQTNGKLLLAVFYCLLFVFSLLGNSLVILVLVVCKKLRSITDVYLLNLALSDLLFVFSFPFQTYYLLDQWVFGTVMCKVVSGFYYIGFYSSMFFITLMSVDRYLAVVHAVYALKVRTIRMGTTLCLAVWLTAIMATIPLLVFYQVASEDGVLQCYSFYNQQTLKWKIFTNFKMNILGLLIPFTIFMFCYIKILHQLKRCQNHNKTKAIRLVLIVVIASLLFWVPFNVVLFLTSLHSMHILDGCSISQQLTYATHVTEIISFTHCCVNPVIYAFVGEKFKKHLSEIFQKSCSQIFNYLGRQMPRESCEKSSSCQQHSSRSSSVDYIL

Row | Binder | EC50 [1] [nM] | % Bmax [2] [%] | EC50 [3] [nM] | Bmax % [4] [%]
1 | VHH-2-Fc S63A (Fc fusion, rest as VHH-2-Fc; Printed position is doubtful) QVQLQESGGGLVQAGGSLRLTCAVSGSTSTINRFAWYRQAPGKQRELVAATSSRTAPNYADSVKGRFRFSRDNARSAVYLQMDNLRPEDTAVYFCQARMAMGSSQVVYWGLGTQVTVSS[human IgG1 Fc not given here] | 1.08 | 70 | – | –
2 | VHH-2-Fc S112A (Fc fusion, rest as VHH-2-Fc) QVQLQESGGGLVQAGGSLRLTCAVSGSTSTINRFAWYRQAPGKQRELVAATSSRTSPNYADSVKGRFRFSRDNARSAVYLQMDNLRPEDTAVYFCQARMAMGASQVVYWGLGTQVTVSS[human IgG1 Fc not given here] | 0.89 | 88 | – | –
3 | VHH-2-Fc S113A (Fc fusion, rest as VHH-2-Fc) QVQLQESGGGLVQAGGSLRLTCAVSGSTSTINRFAWYRQAPGKQRELVAATSSRTSPNYADSVKGRFRFSRDNARSAVYLQMDNLRPEDTAVYFCQARMAMGSAQVVYWGLGTQVTVSS[human IgG1 Fc not given here] | 0.9 | 48 | – | –
4 | VHH-2-Fc T29A (Fc fusion, rest as VHH-2-Fc) QVQLQESGGGLVQAGGSLRLTCAVSGSASTINRFAWYRQAPGKQRELVAATSSRTSPNYADSVKGRFRFSRDNARSAVYLQMDNLRPEDTAVYFCQARMAMGSSQVVYWGLGTQVTVSS[human IgG1 Fc not given here] | 1.43 | 65 | – | –
5 | VHH-2-Fc T35A (Fc fusion, rest as VHH-2-Fc) heavy: QVQLQESGGGLVQAGGSLRLTCAVSGSTSAINRFAWYRQAPGKQRELVAATSSRTSPNYADSVKGRFRFSRDNARSAVYLQMDNLRPEDTAVYFCQARMAMGSSQVVYWGLGTQVTVSS[human IgG1 Fc not given here] | 0.87 | 65 | – | –
6 | VHH-2-Fc V115A (Fc fusion, rest as VHH-2-Fc) QVQLQESGGGLVQAGGSLRLTCAVSGSTSTINRFAWYRQAPGKQRELVAATSSRTSPNYADSVKGRFRFSRDNARSAVYLQMDNLRPEDTAVYFCQARMAMGSSQAVYWGLGTQVTVSS[human IgG1 Fc not given here] | 1.34 | 11 | – | –
7 | VHH-2-Fc V116A (Fc fusion, rest as VHH-2-Fc) QVQLQESGGGLVQAGGSLRLTCAVSGSTSTINRFAWYRQAPGKQRELVAATSSRTSPNYADSVKGRFRFSRDNARSAVYLQMDNLRPEDTAVYFCQARMAMGSSQVAYWGLGTQVTVSS[human IgG1 Fc not given here] | 0.83 | 72 | – | –
8 | VHH-2-Fc Y117A (Fc fusion, rest as VHH-2-Fc) QVQLQESGGGLVQAGGSLRLTCAVSGSTSTINRFAWYRQAPGKQRELVAATSSRTSPNYADSVKGRFRFSRDNARSAVYLQMDNLRPEDTAVYFCQARMAMGSSQVVAWGLGTQVTVSS[human IgG1 Fc not given here] | 0.86 | 76 | – | –
9 | VHH-13-Fc (Fc fusion) QVQLQESGGGLVQAGGSLRLTCAVSGSTSTINRFAWYRQAPGKQRELVAATSSRTSPNYADSVKGRFRFSRDNARSAVYLQMDNLRPEDTAVYFCNARMAMGSSQVVYWGLGTQVTVSS[human IgG1 Fc not given here] | – | – | 1.38 | 51.8
10 | VHH-14-Fc (Fc fusion) QVQLQESGGGLVQAGGSLRLTCAVSGSTSTINRFAWYRQAPGKQRELVAATSSGTSPNYADSVKGRFRFSRDNARSAVYLQMDNLRPEDTAVYFCQARLAMGSSQVVYWGLGTQVTVSS[human IgG1 Fc not given here] | – | – | 4.28 | 85.6
11 | VHH-2-Fc P61A (Fc fusion) QVQLQESGGGLVQAGGSLRLTCAVSGSTSTINRFAWYRQAPGKQRELVAATSSRTSANYADSVKGRFRFSRDNARSAVYLQMDNLRPEDTAVYFCQARMAMGSSQVVYWGLGTQVTVSS[human IgG1 Fc not given here] | 1.18 | 59 | – | –
